Experimental data taken from the supplement of paper PMC3334620.
The full ranking holds about 33,000 sequences; the median of “E-score (-0.5 to 0.5)” is about -0.032, and the highest 2% start at about 0.36. The list shows a part of the results.

Target: T1, Sko1 (UniProt Q02100)
T1 sequence: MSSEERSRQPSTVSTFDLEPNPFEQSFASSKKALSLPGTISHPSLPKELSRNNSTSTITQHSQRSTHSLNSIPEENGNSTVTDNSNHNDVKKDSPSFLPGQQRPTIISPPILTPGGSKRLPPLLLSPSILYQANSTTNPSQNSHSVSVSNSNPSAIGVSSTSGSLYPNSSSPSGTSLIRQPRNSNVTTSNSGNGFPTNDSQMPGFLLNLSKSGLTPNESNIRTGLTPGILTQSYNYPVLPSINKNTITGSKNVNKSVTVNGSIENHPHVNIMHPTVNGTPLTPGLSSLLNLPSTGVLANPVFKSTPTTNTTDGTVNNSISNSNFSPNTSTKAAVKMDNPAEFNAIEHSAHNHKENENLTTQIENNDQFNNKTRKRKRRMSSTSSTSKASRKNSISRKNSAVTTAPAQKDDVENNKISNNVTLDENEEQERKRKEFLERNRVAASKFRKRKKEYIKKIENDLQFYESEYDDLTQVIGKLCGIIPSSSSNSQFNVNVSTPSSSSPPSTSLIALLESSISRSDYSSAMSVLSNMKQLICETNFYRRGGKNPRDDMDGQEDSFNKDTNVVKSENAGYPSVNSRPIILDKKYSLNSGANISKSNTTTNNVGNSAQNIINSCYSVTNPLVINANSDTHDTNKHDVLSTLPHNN
Experiment: PBM E-score (8-mer binding enrichment) (E-score (-0.5 to 0.5)); higher = stronger / more preferred TF binding; most listed sequences are background and not binding sites
Settings: protein concentration: 200 nM; construct: GST-full length
Method in brief: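 E-scores (a modified Wilcoxon-Mann-Whitney statistic) were assigned by the Universal PBM Analysis Suite to every ungapped eight-base word pooled with its reverse complement. The input came from universal all-10-mer Agilent arrays made double-stranded by primer extension and probed with GST-tagged yeast transcription factors at about 100-200 nM. Fluorescent anti-GST detected bound protein, and masliner normalised the scans.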

Sequence | PBM E-score
CCTTGAAA | -0.142
ATAAGCAA | 0.0996
TGAGTACA | -0.0184
CCCTATGA | 0.0198
CCATTGCG | 0.0331
TCATTGGA | 0.174
CTCATTAA | 0.0254
TGATGAAA | 0.195
GCAGGAAA | -0.131
CGAAGAAC | 0.141
AGTCTCTA | -0.00077
AATTAGTA | 0.249
CCGGTAGC | -0.219
CTCAGTTA | -0.0515
CTCTCTCC | -0.215
GTGCGAGA | 0.0251
CGGTCGAG | -0.316
CTCCCTGC | -0.18
ATTGCACG | 0.198
ACACCTCG | -0.13
GAGGACGA | -0.0525
CGCAATAA | 0.337
ATGTGTGC | -0.0761
CTTGCGGA | -0.261
TAGTGCAA | 0.0883

Sequence | PBM E-score
CATAACGA | 0.164
ATCTAAGA | 0.0313
ACGTAACA | 0.464
AAGGGAAC | -0.263
ACGGCCGT | -0.216
GGACCGAA | -0.0348
ATTACAGG | 0.0412
ATGACAGA | 0.169
ACATATAA | 0.196
AACTACGT | 0.455
GTTAGCCA | -0.0986
GGATGCAC | -0.16
GCCGGCAC | -0.168
AGTTGGTC | -0.146
ATTCGAAA | 0.123
GGGGCCAC | -0.222
CAACAGCG | -0.0883
AACGCCCT | -0.159
ACGCTCGG | -0.145
CGGAGGAG | -0.408
GAGGGACC | -0.276
CTTAAGTC | -0.0759
CAAATCGC | -0.249
AAAACGAT | 0.15
CAAGGAGA | -0.217

Sequence | PBM E-score
ATTATACA | 0.211
CCGAACCG | -0.331
AGCGACAT | 0.143
GGCGGTGA | -0.0691
ACCTTTAC | 0.0365
ACGGCTAA | -0.0592
GCAGTCGA | -0.0701
TAACTTAA | 0.146
CGCGCCCA | -0.16
TATCAACA | 0.193
AACAGTGC | -0.0938
CTTAATAA | 0.0783
GAGACAAA | -0.2
GAAATAAC | 0.144
CACGAGTG | -0.0109
ACAGAAAG | 0.115
AGAGTGTC | 0.0578
CTCAAAGA | -0.0769
ATATGCAT | 0.0831
AGCACATG | 0.00826
CAGGTCCC | -0.322
GTATAGTA | 0.0728
ATGAAGTA | 0.14
AGTTCAGC | -0.146
CCTCACAA | -0.00715

Sequence | PBM E-score
AATCTCGT | 0.143
TAAAAATA | 0.266
GAATATAC | 0.0665
CGATTGGA | -0.0798
GTCGTCAA | 0.239
AACAACAG | 0.0377
CAAGGACA | -0.0777
AATCGACG | 0.295
ACTATAAA | 0.144
GGGCACTA | -0.133
ATATCTTG | 0.1
CTGGTAGC | -0.114
CATAGTCG | 0.167
ACCGGACG | 0.0453
CGTATTGA | 0.348
AAGAATGC | 0.04
ACCCTCCG | -0.305
AGCGCTTG | -0.226
GTGGTAAC | 0.121
ATATGGAA | 0.0514
CGTCAAAA | 0.36
GCTGTGAC | 0.207
ACGACTAC | 0.0547
ATCCTCCA | -0.0908
CTATAGGA | 0.0338

Sequence | PBM E-score
TCTGTTCA | -0.0585
CAACAGTG | -0.0996
ACACCCCA | -0.00989
CTACTACA | -0.0394
CGATTGAG | -0.111
ACTATGAG | 0.0435
GAATTATA | 0.163
AATGTCGA | 0.217
GGAAGAAC | 0.079
AGGAGTCA | -0.0845
CGACGACA | 0.0871
CGTTCGAG | 0.189
ACCACGGC | -0.135
CAATTGTC | -0.0409
ACACTACG | 0.368
GACTTATA | 0.197
GCATTGTA | 0.0473
ATCTCGGA | 0.0211
AGTGTCGA | -0.14
GGCGACGA | -0.241
TTCATAAA | 0.0982
ACAGGAAC | -0.0349
CGGGCTTC | -0.275
AAATGCGA | 0.0299
ACGTGGCA | 0.297

Sequence | PBM E-score
CCGCCTCG | -0.173
AGGTTGTA | 0.15
ACCCACGG | -0.218
ACGATATA | 0.237
CACAGAAG | -0.148
CCTCCAAC | -0.0545
TCATCCGA | 0.184
TAGCAGCA | -0.024
CCGACGCG | -0.0999
TAATGGGA | -0.0156
ATATAAGC | 0.0605
ACATGCTC | -0.037
CCGTGCCA | -0.129
GGCAAAAC | -0.0766
CACGAAAC | 0.184
GCAATACC | 0.0431
AGGACAAC | 0.154
GCGACCTA | -0.117
GCTGGTGA | 0.012
CCTAAGCG | -0.139
GAAATTTA | 0.208
ATAAAAGG | -0.0649
GGAAAGAC | -0.0809
TCTATTAA | 0.117
AGTCCAAG | -0.208

Sequence | PBM E-score
AGTCGGGC | -0.167
ACTGCTCC | -0.203
GGAGCTGA | -0.101
AGGTTCAG | -0.115
CTTCCTCC | -0.237
CTTAAAAA | 0.182
AACGCGTG | 0.232
CTAAGCTA | 0.0685
AAGTCACC | -0.00714
AGAATTAT | 0.247
ACGTCGGA | 0.273
ACAGCTGA | 0.0321
CTGTGCCA | -0.191
CGCTCCCG | -0.139
CGCGCCGC | -0.106
CATGGACG | 0.228
ACCAACCC | -0.102
CTGAACAA | 0.0862
CTTAGATC | -0.00163
CGAAATCG | 0.0483
AAGGGTAA | -0.146
AAATCAGG | 0.0636
